{"source": "paper PMC4336329", "about": "(PLoS ONE, 2015)", "note": "Among all 310,000 compounds or so, about 14,000 (4.5%) showed an effect of 50% or more. The effect is printed as a negative number. This is one part of the list.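 Note: peak tail current of the secondary pulse compared with the same well before compound.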"}
{"target": "human ether-à-go-go-related gene (hERG) potassium channel (human, UniProt Q12809)", "sequence (Q12809 whole entry, looked up)": "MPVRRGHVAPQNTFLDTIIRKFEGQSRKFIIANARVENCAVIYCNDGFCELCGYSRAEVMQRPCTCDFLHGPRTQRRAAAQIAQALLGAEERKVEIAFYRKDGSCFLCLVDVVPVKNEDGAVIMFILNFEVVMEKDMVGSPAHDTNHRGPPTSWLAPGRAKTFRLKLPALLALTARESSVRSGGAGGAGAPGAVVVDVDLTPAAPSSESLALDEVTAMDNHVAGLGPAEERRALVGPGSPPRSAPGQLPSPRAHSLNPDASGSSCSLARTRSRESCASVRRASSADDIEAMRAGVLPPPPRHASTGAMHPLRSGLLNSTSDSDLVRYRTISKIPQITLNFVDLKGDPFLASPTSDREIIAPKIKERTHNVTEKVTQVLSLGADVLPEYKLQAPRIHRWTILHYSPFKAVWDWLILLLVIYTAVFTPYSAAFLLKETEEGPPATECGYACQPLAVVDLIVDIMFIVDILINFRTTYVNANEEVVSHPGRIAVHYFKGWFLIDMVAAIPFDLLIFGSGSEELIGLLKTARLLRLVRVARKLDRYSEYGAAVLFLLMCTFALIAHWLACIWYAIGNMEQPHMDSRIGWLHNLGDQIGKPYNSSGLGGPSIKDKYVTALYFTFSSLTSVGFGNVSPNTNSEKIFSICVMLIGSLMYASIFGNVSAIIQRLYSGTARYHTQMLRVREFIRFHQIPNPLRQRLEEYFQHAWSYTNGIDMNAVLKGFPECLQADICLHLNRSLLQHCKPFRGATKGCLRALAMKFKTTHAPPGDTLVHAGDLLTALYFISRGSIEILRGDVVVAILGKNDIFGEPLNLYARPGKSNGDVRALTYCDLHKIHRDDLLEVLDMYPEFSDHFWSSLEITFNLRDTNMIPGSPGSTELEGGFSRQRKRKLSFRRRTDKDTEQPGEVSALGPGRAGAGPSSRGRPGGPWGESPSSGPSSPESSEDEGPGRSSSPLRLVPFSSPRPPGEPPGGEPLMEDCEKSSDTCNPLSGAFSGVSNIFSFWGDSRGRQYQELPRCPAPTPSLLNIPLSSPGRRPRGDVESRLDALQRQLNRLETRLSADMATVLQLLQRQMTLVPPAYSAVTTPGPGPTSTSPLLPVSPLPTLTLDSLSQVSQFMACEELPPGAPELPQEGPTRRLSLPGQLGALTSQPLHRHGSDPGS", "experiment": "primary screen, population patch clamp on CHO cells stably expressing hERG", "units": {"hERG current change (%, negative = inhibition) at 10uM": "%"}}
{"smiles": "COc1cc(NC(=O)c2cnc(N)s2)cc(C(=O)Nc2cccc(C(F)(F)F)c2)c1", "hERG current change (%, negative = inhibition) at 10uM": -26}
{"smiles": "FC(F)(F)c1cccc(-c2nc3nc(Cl)c(Cl)nc3[nH]2)c1", "hERG current change (%, negative = inhibition) at 10uM": 30.4}
{"smiles": "COC(=O)CN(c1ccccc1OC)S(=O)(=O)c1ccccc1", "hERG current change (%, negative = inhibition) at 10uM": 1.9}
{"smiles": "O=C(O)C1CCCN1S(=O)(=O)c1cccc(S(=O)(=O)N2CCCC2C(=O)O)c1", "note": "(centres unmarked)", "hERG current change (%, negative = inhibition) at 10uM": 8.66}
{"smiles": "CC(=O)N(C)c1ccc(NC(=O)/C=C/c2ccccc2Cl)cc1", "hERG current change (%, negative = inhibition) at 10uM": 2}
{"smiles": "Cn1ncc(Cl)c1C(=O)Nc1cccnc1", "hERG current change (%, negative = inhibition) at 10uM": 23.9}
{"smiles": "Cn1c(N2CCOCC2)nc(-c2ccccc2)c1-c1ccccc1", "hERG current change (%, negative = inhibition) at 10uM": -41.9}
{"smiles": "CN(C)S(=O)(=O)N1CCCC(C(=O)c2ccc(-c3ccccc3)c(F)c2)C1", "note": "(centres unmarked)", "hERG current change (%, negative = inhibition) at 10uM": 7.39}
{"smiles": "N#Cc1cc([N+](=O)[O-])ccc1NC(=O)COC(=O)CC1CCCC1", "hERG current change (%, negative = inhibition) at 10uM": -25.1}
{"smiles": "N#C/C(=C\\c1cccc(OC(=O)c2cccs2)c1)C(N)=O", "hERG current change (%, negative = inhibition) at 10uM": -6.23}
{"smiles": "Cc1ccc(C(=O)CSc2nnc(CNc3nc(-c4ccccc4)cs3)n2C)cc1", "hERG current change (%, negative = inhibition) at 10uM": -9.06}
{"smiles": "Cc1ccc(NC(=O)C(c2ccccc2)N2CCN(C(=O)c3ccco3)CC2)cc1Cl", "note": "(centres unmarked)", "hERG current change (%, negative = inhibition) at 10uM": -21.3}
{"smiles": "COc1cccc(-n2c(C)c3c(OC)cccc(=O)c3c2C)c1", "hERG current change (%, negative = inhibition) at 10uM": -11.8}
{"smiles": "CC(O)c1c(OCc2ccccc2)ncnc1OCc1ccccc1", "note": "(centres unmarked)", "hERG current change (%, negative = inhibition) at 10uM": -15.5}
{"smiles": "O=C(NCc1cccs1)C1CC(O)CN1C(=O)Nc1ccccc1", "note": "(centres unmarked)", "hERG current change (%, negative = inhibition) at 10uM": 19.2}
{"smiles": "O=C(Nc1ccc(F)cc1)c1sc2cc(C(F)(F)F)cnc2c1-c1cccs1", "hERG current change (%, negative = inhibition) at 10uM": 5.64}
{"smiles": "CC1(C)CC(=O)C(=Cc2cn(CCC#N)nc2-c2ccc(F)cc2)C(=O)C1", "hERG current change (%, negative = inhibition) at 10uM": 4.1}
{"smiles": "CCOC(=O)C1CN(S(=O)(=O)c2ccccc2)C1", "hERG current change (%, negative = inhibition) at 10uM": -0.886}
{"smiles": "C/C(=N/NC(=O)Cc1cccs1)c1ccco1", "hERG current change (%, negative = inhibition) at 10uM": 12.5}
{"smiles": "CC(C)Oc1ccc(C(=O)NC2CCSc3ccccc32)cc1", "note": "(centres unmarked)", "hERG current change (%, negative = inhibition) at 10uM": 19.5}
{"smiles": "CN(C(=O)c1cc2ccccc2oc1=O)C1(C)CCS(=O)(=O)C1", "note": "(centres unmarked)", "hERG current change (%, negative = inhibition) at 10uM": 9.15}
{"smiles": "COc1ccc(N(CC(=O)Nc2cccc([N+](=O)[O-])c2C)S(C)(=O)=O)cc1OC", "hERG current change (%, negative = inhibition) at 10uM": -7.79}
{"smiles": "O=C(NNC(=O)c1ccccc1[N+](=O)[O-])Nc1ccc(Cl)cc1", "hERG current change (%, negative = inhibition) at 10uM": 12.1}
{"smiles": "CCOC(=O)N1CCC(N2C(=O)c3ccc(C(=O)O)cc3C2=O)CC1", "hERG current change (%, negative = inhibition) at 10uM": 9.66}
{"smiles": "Nc1cc(N2CCNCC2)c([N+](=O)[O-])cc1Cl", "hERG current change (%, negative = inhibition) at 10uM": 0.16}
{"smiles": "COC(=O)c1c(C)[nH]c(C(=O)/C=C/c2ccc(C)cc2)c1C", "hERG current change (%, negative = inhibition) at 10uM": 4.43}
{"smiles": "Cc1ccc2nc(N3CCN(C(=O)c4cccs4)CC3)c(C#N)cc2c1", "hERG current change (%, negative = inhibition) at 10uM": -76.9}
{"smiles": "Cc1ccc(S(=O)(=O)N/N=C\\c2cn(CC(N)=O)c3ccccc23)cc1C", "hERG current change (%, negative = inhibition) at 10uM": 5.21}
{"smiles": "O=C(COC(=O)/C=C/c1ccc(F)cc1)Nc1cc(C(F)(F)F)ccc1N1CCOCC1", "hERG current change (%, negative = inhibition) at 10uM": -3.43}
{"smiles": "CSc1cccc(CN2CCCC(CNC(=O)c3ccco3)C2)c1", "note": "(centres unmarked)", "hERG current change (%, negative = inhibition) at 10uM": -91.9}
{"smiles": "O=C(Cc1cccs1)Nc1nnc(SCc2ccc(Br)cc2)s1", "hERG current change (%, negative = inhibition) at 10uM": 0.48}
{"smiles": "CC(=O)Nc1ccc(N(C(=O)CNC(=O)c2ccco2)C(C(=O)NC2CCCC2)c2ccco2)cc1", "note": "(centres unmarked)", "hERG current change (%, negative = inhibition) at 10uM": 3.72}
{"smiles": "CC(C)c1ccc(NC(=O)CN2C(=O)c3ccccc3S2(=O)=O)cc1", "hERG current change (%, negative = inhibition) at 10uM": 9.31}
{"smiles": "CCCOC(=O)c1c(N)n(Cc2cccs2)c2nc3ccccc3nc12", "hERG current change (%, negative = inhibition) at 10uM": -14.4}
{"smiles": "CCOC(=O)N1CCN(S(=O)(=O)c2ccc(C)cc2)C1c1ccccc1", "note": "(centres unmarked)", "hERG current change (%, negative = inhibition) at 10uM": -24}
{"smiles": "O=C(NCc1cc(C(F)(F)F)cc(C(F)(F)F)c1)C12CN(Cc3ccccc3)CC1C(c1cccc([N+](=O)[O-])c1)=NO2", "note": "(centres unmarked)", "hERG current change (%, negative = inhibition) at 10uM": -5.93}
{"smiles": "O=C1CN(c2ccccc2)C(=S)N1C(=O)c1ccc(Br)cc1", "hERG current change (%, negative = inhibition) at 10uM": 9.72}
{"smiles": "Cc1ccc2cc(S(=O)(=O)NCCC(=O)O)ccc2c1", "hERG current change (%, negative = inhibition) at 10uM": -2.04}
{"smiles": "C/C=C\\C(=O)Nc1cccc(C2=NOC3(C2)C[C@@H](C(N)=O)N(C(=O)C2(C)CC2)C3)c1", "note": "(some centres unmarked)", "hERG current change (%, negative = inhibition) at 10uM": 1.48}
{"smiles": "COc1ccc2[nH]c(=O)c(CN(C(=O)c3ccco3)C(C)C)cc2c1", "hERG current change (%, negative = inhibition) at 10uM": 0.433}
{"smiles": "O=C(CNC(=O)c1ccco1)Nc1ccc(OC(F)F)cc1", "hERG current change (%, negative = inhibition) at 10uM": 19.6}
{"smiles": "CC(=O)Oc1ccc(N(C(C)=O)S(=O)(=O)c2ccc(C)cc2C)c2ccccc12", "hERG current change (%, negative = inhibition) at 10uM": 17}
{"smiles": "CN1c2ccc([N+](=O)[O-])cc2N(C)C1(C)c1ccccc1", "note": "(centres unmarked)", "hERG current change (%, negative = inhibition) at 10uM": 18.8}
{"smiles": "COc1ccccc1Nc1cc(N2CCOCC2)c2nonc2c1[N+](=O)[O-]", "hERG current change (%, negative = inhibition) at 10uM": 12}
{"smiles": "O=C(NC1=NCCS1)c1ccc(Cl)cc1", "hERG current change (%, negative = inhibition) at 10uM": 14.7}
{"smiles": "CC(OC(=O)CCN=C1NS(=O)(=O)c2ccccc21)C(=O)Nc1ccc(N(C)C)cc1", "note": "(centres unmarked)", "hERG current change (%, negative = inhibition) at 10uM": 0.875}
{"smiles": "Nc1nc2n(n1)C(=O)CC(c1ccccc1[N+](=O)[O-])N2", "note": "(centres unmarked)", "hERG current change (%, negative = inhibition) at 10uM": 41.7}
{"smiles": "Cc1cc(NC(=O)CSc2ccccn2)no1", "hERG current change (%, negative = inhibition) at 10uM": 11.3}
{"smiles": "CCN1CCCC1CNC(=O)c1ccc(N2CCOCC2)c(NS(=O)(=O)c2ccc(OC)cc2)c1", "note": "(centres unmarked)", "hERG current change (%, negative = inhibition) at 10uM": -24.4}
{"smiles": "Cc1cc(NC(=O)c2ccc(COc3ccccc3Cl)o2)no1", "hERG current change (%, negative = inhibition) at 10uM": 9.63}
{"smiles": "CC1CCCCN1CC(=O)c1ccc2cc[nH]c2c1", "note": "(centres unmarked)", "hERG current change (%, negative = inhibition) at 10uM": 16.1}
{"smiles": "CC(C)c1c(Cl)c(O)c(-c2ccccc2)c(=O)n1-c1ccc(F)cc1", "hERG current change (%, negative = inhibition) at 10uM": 11.1}
{"smiles": "CCOc1cccc2cc(C(C)=O)oc12", "hERG current change (%, negative = inhibition) at 10uM": 31.4}
{"smiles": "O=C(CNc1ccc2c(c1)OCO2)N/N=C\\c1ccccc1Cl", "hERG current change (%, negative = inhibition) at 10uM": 3.98}
{"smiles": "CC(=O)c1nnn(-c2cccc(C#N)c2)c1C", "hERG current change (%, negative = inhibition) at 10uM": 21.6}
{"smiles": "O=C(NCc1cccnc1)c1nc(-c2ccccc2)n(-c2ccccc2)n1", "hERG current change (%, negative = inhibition) at 10uM": -14.7}
